# Assay results reported in PubChem BioAssay AID1345082 (National Center for Advancing Translational Sciences (NCATS), 2018).
# Out of some 94,000 compounds screened, about 4,000 (4.3%) were called active. The shares of active, inactive and inconclusive entries below differ from those in the screen. The call rests on the fitted dose curve; in most records, active means well fitted inhibition curve with a large enough effect; inconclusive means small, poorly fitted or top-dose-only effect; inactive means no such curve, though single readings can be large or run the other way. Potencies beside an inconclusive call are fits to weak or partial responses and may not hold up.
# Assay: Cytotoxic Profiling in NIH 3T3 Cell Line of Diverse Libraries Using Quantitative High-Throughput Screening; further: nearly all actives have a fitted effect of over 55% in size
# Settings: NIH 3T3 viability, CellTiter-Glo ATP luminescence, 48-72 h; activity change, negative = cytotoxicity: at 96.7 µM (top of the series) unless noted; series mostly up to 96.7 µM
# In short: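 Cytotoxicity was measured by CellTiter-Glo ATP luminescence after 48 or 72 h compound exposure at 37 °C. Mouse NIH 3T3 fibroblasts were seeded at 400 cells/well and dosed by 23 nL pin transfer.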
# On the % scale 0 is the no-effect control and ±100 the full control effect; potency means the concentration at half of the fitted maximal effect; tags describe the fitted curve by direction and shape.
Compound,"activity change, negative = cytotoxicity",Potency
COc1ccc(-n2c(=O)c(C(=O)NC3CCCC3)nc3cccnc32)cc1,inactive: -6.55%,–
Cc1ccc(CN2C[C@]34C=C[C@H](O3)C(C(=O)N(C)Cc3ccsc3)C4C2=O)cc1C (some centres not stated),inactive: -16.9%,–
O=C(NC1CCCN(c2cc(-c3ccc(F)cc3)[nH]n2)C1)c1ccc(F)c(F)c1 (configuration not stated),–,"inconclusive: 50.1 µM [inhibitor, partial curve, poor fit]"
O=C(c1ccsc1)N1CCN(c2cc(C(F)(F)F)ncn2)CC1,inactive: -19%,–
CC(C)CC(=O)N1CCC2(CC1)CC(N(C(=O)c1ccccc1)C1CC1)CCO2 (configuration not stated),–,"inconclusive: 50.1 µM [inhibitor, partial curve, poor fit]"
COc1ccccc1N1CCCc2ncc(C(=O)NCc3ccccc3)cc21,–,"inconclusive: 100 µM [inhibitor, single point]"
O=C(c1ccncc1)N1CCCN(c2ccc3nnc(-c4ccccc4)n3n2)CC1,inactive: -27.1%,–
COc1ccc(C(=O)NC2CCN(c3cc(-c4ccc(F)cc4)[nH]n3)CC2)cc1,inactive: -1.31%,–
O=C(Nc1ccccc1)Nc1ccc([C@@H](O)[C@H]2COCC(=O)N2Cc2ccc(F)cc2)cc1,–,"inconclusive: 50.1 µM [inhibitor, partial curve, poor fit]"
CC(C)C(=O)N1Cc2ccccc2CC2(CCN(Cc3ccc(O)cc3)CC2)C1,–,"inconclusive: 70.8 µM [inhibitor, single point]"
COc1ccccc1-c1cccc(C(=O)N2CCC[C@H]2C(=O)NCc2ccc(C(F)(F)F)cc2)c1,–,"inconclusive: 31.6 µM [inhibitor, partial curve]"
O=C(NC1CCN(C(=O)c2ccc(-c3cccs3)cc2)CC1)c1ccccc1F,–,"inconclusive: 44.7 µM [inhibitor, partial curve, poor fit]"
C[S+](=O)([O-])Nc1cccc(-c2cc(-c3cccnc3)c3cncn3c2)c1,–,"inconclusive: 10 µM [inhibitor, full curve, poor fit]"
Cc1nn(-c2ccccc2[N+](=O)[O-])c(C)c1[C@@H]1C=C[C@@H](NS(=O)(=O)c2ccccc2)C1,–,"inconclusive: 100 µM [inhibitor, partial curve]"
COc1ccc(C(=O)N2CCc3nc(C4CC4)nc(-c4ccc(OC)cc4)c3CC2)cc1,–,"inconclusive: 50.1 µM [inhibitor, partial curve, poor fit]"
O=C(c1cc2n(n1)CC(c1ccc3c(c1)OCO3)OC2)N1CCN(c2ccccc2)CC1 (configuration not stated),–,"inconclusive: 70.8 µM [inhibitor, single point]"
COc1ccccc1-c1[nH]nc2ncc(-c3cccc(CO)c3)nc12,–,"inconclusive: 7.94 µM [inhibitor, full curve, poor fit]"
